Data reported in PubChem BioAssay AID463173 (ICCB-Longwood Screening Facility, Harvard Medical School, 2010).
In all, about 52,000 compounds went through this assay and about 4,300 (8.3%) were called active. Cut-off read from the data, not from the text of the source: active = survival mostly below about 52% (no sharp cut-off); inactive = mostly above about 56%. This is one part of the list.

system: DeltatarO mutant; assay: S. aureus survival, RN4220 and DeltatarO strains – OD600, teichoic acid synthesis inhibitors, primary screen (AID 463173); details: S. aureus RN4220 wild type/DeltatarO growth, OD600, 18 h, active compounds read low, screened at 18.75 µg/mL (by protocol)

Question: For CNC(=O)CN1C(=O)COc2ccc(S(=O)(=O)N3CCC(C)CC3)cc21, which survival is on record?
Answer: inactive: 86%

Question: Which survival does the source give for CCc1cc2c(cc3c(=O)n(CC(=O)NCCc4ccc(OC)cc4OC)nc(CC)n32)s1 here?
Answer: inactive: 83%

Question: With COc1ccc2[nH]cc(CCN=C(NC(=O)c3ccccc3OC)Nc3nc(C)cc(C)n3)c2c1 as the molecule, how does the survival read?
Answer: inactive: 70%

Question: Which survival does the source give for COC(=O)Cn1c(SCCOc2ccccc2OC)nc2ccccc21 here?
Answer: inactive: 51%

Question: Cc1cc2[nH]c(=O)c(=O)[nH]c2cc1S(=O)(=O)N1CCN(c2cccc(Cl)c2)CC1 was tested. Which survival did it give?
Answer: inactive: 76%

Question: Which survival does the source give for CC(C)CCOc1ccc(C(=O)NCC2OCCc3ccccc32)cc1 (stereo not given) here?
Answer: active: 39%

Question: With COc1ccc(-c2noc(CCC(=O)N(C)c3cc(Cl)ccc3OC)n2)cc1 as the molecule, how does the survival read?
Answer: active: 26%

Question: Which survival does the source give for COc1cccc(-n2c(=O)c3cc(OC)c(OC)cc3n(CC(=O)Nc3ccc(F)cc3)c2=O)c1 here?
Answer: inactive: 73%

Question: With COc1ccc(-n2c(SCC(=O)NCc3ccc(Cl)cc3)nc3ccsc3c2=O)cc1 as the molecule, how does the survival read?
Answer: inactive: 68%

Question: Which survival does the source give for Cc1ccc(NC(=O)CCCc2nc(-c3ccco3)no2)cc1Cl here?
Answer: inactive: 80%

Question: For COc1ccc(-n2nnnc2C2CCN(S(=O)(=O)c3cccc(C(F)(F)F)c3)CC2)cc1, which survival is on record?
Answer: inactive: 83%

Question: COc1cccc(NC(=O)C(Cc2ccccc2)N2Cc3ccccc3C2=O)c1 (stereo not given) was tested. Which survival did it give?
Answer: inactive: 66%

Question: With Cc1cc2c(cc1NS(=O)(=O)c1ccc(Br)cc1)n(C)c(=O)c(=O)n2C as the molecule, how does the survival read?
Answer: inactive: 109%

Question: Which survival does the source give for COc1cccc(Cn2nc(SC)c(S(=O)(=O)c3ccccc3)c2N(C(C)=O)C(C)=O)c1 here?
Answer: inactive: 72%

Question: For CCCSCCCNC(=O)c1ccc(C)c(NC(=O)c2nsc3ccccc23)c1, which survival is on record?
Answer: inactive: 101%

Question: COc1cc(NC(=O)c2cccc(Cl)c2Cl)ccc1NC(=O)c1cc2ccccc2o1 was tested. Which survival did it give?
Answer: inactive: 64%

Question: Which survival does the source give for CCS(=O)(=O)N1CCCc2cc(C(=O)Nc3cccc(C(C)=O)c3)ccc21 here?
Answer: inactive: 89%

Question: CCCn1c2ccc(F)cc2c2nnc(SCCN3CCCCC3)nc21 was tested. Which survival did it give?
Answer: inactive: 187%

Question: Which survival does the source give for CCC(=O)N1CCc2cc(Br)cc(S(=O)(=O)CCC(=O)Nc3cccc(Cl)c3)c21 here?
Answer: inactive: 81%

Question: For CCCc1cnc2c(c1SCC(=O)Nc1ccccc1OCC)c(=O)n(C)c(=O)n2C, which survival is on record?
Answer: inactive: 72%

Question: Clc1ccc(-c2nnn3c2nc(NC2CCCCC2)c2ccccc23)cc1 was tested. Which survival did it give?
Answer: active: 17%

Question: With CCOc1ccc(Nc2ncnc3c2c(-c2ccccc2)cn3-c2cccc(C)c2)cc1 as the molecule, how does the survival read?
Answer: inactive: 115%

Question: How did the survival turn out when O=S(=O)(N1CCCCC1)N1CCNCC1 was run?
Answer: inactive: 95%

Question: How did the survival turn out when CCOc1ccc(C(=O)N(Cc2ccc(C(C)C)cc2)Cc2ccco2)cc1 was run?
Answer: inactive: 68%

Question: How did the survival turn out when CCOc1ccc(NCc2cccn2-c2nnc(N3CCC(C(=O)NCc4ccccc4Cl)CC3)s2)cc1 was run?
Answer: inactive: 84%

Question: How did the survival turn out when O=C(c1ccc(F)cc1)N1CCc2c([nH]c3ccccc23)C1c1ccc(Cl)cc1 (stereo not given) was run?
Answer: inactive: 55%

Question: With CCc1ccc(OCCSc2nc3ccccc3n2CC(=O)N2CCCCC2)cc1 as the molecule, how does the survival read?
Answer: active: 40%

Question: For COc1ccc(Cl)cc1NC(=O)N1CCN(S(=O)(=O)c2ccc3c(ccn3C)c2)CC1, which survival is on record?
Answer: inactive: 92%

Question: With CC(C)(C)OC(=O)N1CCC(c2c(C(=O)NCc3cccs3)cnn2-c2cccc(F)c2)CC1 as the molecule, how does the survival read?
Answer: active: -5%

Question: COc1ccc(CC(=O)N2CCc3cc(OC)c(OC)cc3C2COc2ccc(F)cc2)cc1 (stereo not given) was tested. Which survival did it give?
Answer: inactive: 67%

Question: c1ccc2[nH]c(CSc3nnnn3C3CCCCC3)nc2c1 was tested. Which survival did it give?
Answer: inactive: 95%

Question: Which survival does the source give for COc1cc2c(cc1OC)C(c1cccc(Cl)c1)CC(=O)N2 (stereo not given) here?
Answer: inactive: 63%

Question: How did the survival turn out when COc1ccc(N2CCN(S(=O)(=O)c3ccc(F)c(C(=O)Nc4ccccc4Cl)c3)CC2)cc1 was run?
Answer: inactive: 96%

Question: With Cn1nc(-c2ccccc2F)c2cc(C(=O)NCc3ccccc3Cl)sc21 as the molecule, how does the survival read?
Answer: active: 56%

Question: For CCn1cc(C(=O)O)c(=O)c2cc(F)c(N3CCN(C(=O)c4ccccc4F)CC3)cc21, which survival is on record?
Answer: active: 3%

Question: With CC(=O)Nc1ccc(NC(=O)c2nc(S(=O)(=O)Cc3ccc(F)cc3)ncc2Cl)cc1 as the molecule, how does the survival read?
Answer: active: 32%

Question: How did the survival turn out when COc1cccc(CNC(=O)c2cnc3c(-c4ccc(F)cc4)c(C)nn3c2C)c1 was run?
Answer: inactive: 124%

Question: With CCN(C(=O)c1cn(-c2cccc(OC)c2)c(=O)c2ccccc12)c1ccccc1C as the molecule, how does the survival read?
Answer: inactive: 62%

Question: For c1ccc(-c2nc(-c3cccnc3)no2)cc1, which survival is on record?
Answer: inactive: 98%

Question: How did the survival turn out when Cc1ccc(C)c(NC(=O)CSc2nccn2-c2cccc(C)c2C)c1 was run?
Answer: inactive: 74%

Question: With COc1ccc(C(=O)Nc2ccccc2-c2nc3ccccc3s2)cc1OC as the molecule, how does the survival read?
Answer: active: 7%

Question: How did the survival turn out when CC1CCCN(C(=O)CN2CCN(C(=O)c3ccco3)CC2)C1 (stereo not given) was run?
Answer: inactive: 85%

Question: Which survival does the source give for Cc1ccc(OCCSc2nc(-c3ccccc3C)nc3cc(=O)[nH]n23)cc1Cl here?
Answer: inactive: 106%

Question: How did the survival turn out when COc1ccccc1N1CCN(c2ncnc3c2c(-c2ccccc2)cn3-c2cccc(Cl)c2)CC1 was run?
Answer: inactive: 94%

Question: With CCc1nn(C(CC)C(=O)NCc2ccc(OC)c(OC)c2)c(=O)c2cc3oc(C)cc3n12 (stereo not given) as the molecule, how does the survival read?
Answer: inactive: 85%
